# Laboratory results published in PMC12040169 (PLOS Biology, 2025).
# The other results are listed elsewhere or left out. Peptide text beside a SMILES is read from it. * marks the point of attachment. Hydrocinnamoyl = O=C(CCc1ccccc1)*
# Tested on: T1, C. trachomatis L2/434/Bu expressing GFP (CTL2-GFP)
# T1 construct: L2/434/Bu GFP intracellular growth in HeLa cells
# Design: species or system HeLa; C. trachomatis total inclusion area by high-content imaging, normalised to DMSO
# Conditions: total inclusion area; 28.5 h, 10 µM; inhibitor
# How it was run: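 After bulk GFP and resorufin fluorescence reads, cells were fixed, stained with Hoechst and imaged by high-content microscopy. Inclusion area and number (GFP) stood in for chlamydial growth, nuclei count (Hoechst) for host cell viability. MICs were derived as for the bulk readout.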
row,SMILES,% of control remaining
1,CCCCC(NS(=O)(=O)Cc1ccccc1)C(=O)O (stereo not shown) [CBK286798],94.7934
2,CCNC(=O)NC[C@H]1C[C@@H]2CCN1C[C@@H]2c1cc(-c2ccccc2OC)nn1C [CBK289105],74.0189
3,Cc1ccc(S(=O)(=O)Nc2ccnc(Cl)n2)cc1 [CBK067661],87.9721
4,CCN(C(=O)Cn1cccc(OC)c1=O)C1CCOC(C)(C)C1 (stereo not shown) [CBK306879],86.6293
5,CCN(CC)CCCNc1oc(-c2ccc(Cl)cc2)nc1C#N [CBK265746],111.411
6,c1ccc2c3c([nH]c2c1)C1(CCN(CCC2CCCCC2)C1)OCC3 (stereo not shown) [CBK061789],9.866
7,O=S(=O)(CC(F)(F)F)N(c1ccccc1)C1CCNCC1 [CBK165093T],86.0624
8,COc1ccc(C(=O)N(C)C2CCN(C)C2)cc1Nc1cncc(-c2cc3ccccc3[nH]2)n1 (stereo not shown) [CBK155260T],76.966
9,Nc1ncc(-c2ccsc2)nc1NCC1CCOCC1 [CBK063848],97.1923
10,O=C(Cn1ccc(=O)[nH]c1=O)NCC1(Sc2ccccc2)CC1 [CBK306242],66.3725
11,O=C(CCC(=O)c1ccc2c(c1)OCCO2)OCC(=O)c1ccc(Cl)c(Cl)c1 [CBK264825],118.374
12,CCc1ccc(CN(C(=O)c2cc(OC)c(OC)c(OC)c2)C2CCS(=O)(=O)C2)cc1 (stereo not shown) [CBK293961],104.067
13,COc1nc2ccn(CCN3C(=O)CCC3=O)c(=O)c2cc1C#N [CBK307422],96.7645
14,O=C(O)CNC(=O)CNC(=O)CCc1ccccc1 [CBK286874] (Hydrocinnamoyl-Gly-Gly-OH),103.668
15,Cc1cc(C2CCCCCN2C(=O)c2cccc(F)c2)on1 (stereo not shown) [CBK285448],75.3617
16,CS(=O)(=O)N1CC2(CCN(CCCCC3NC(=O)NC3=O)CC2)c2ccccc21 (stereo not shown) [CBK126684],90.7461
17,CC(C)(C)c1ccc(OCC(=O)Nc2ccc(OCC(=O)O)cc2)cc1 [CBK287013],93.8848
18,Cc1nc2c(c(=O)[nH]1)CC[C@@H]1CN(C(=O)CCc3ccccc3)C[C@H]21 [CBK284414],77.5282
19,O=C1CCCC[C@]2(CN(Cc3ccccc3)C[C@H]2c2ccccn2)N1 [CBK283340],107.725
20,CSCc1ccc(C(=O)Nc2cc(C(=O)O)ccc2C)cc1 [CBK297107],82.3698
21,CCn1c(=O)oc2cc(NC(=O)NCCN3CCCCC3CO)ccc21 (stereo not shown) [CBK306565],66.0453
22,CCc1nc2ccc(C(=O)N3CCCCC3)cn2c1N(C)C(=O)c1cccc(OC)c1 [CBK146392],91.3631
23,CC12CCC(C(=O)N(CC(O)Cn3c4ccc(Br)cc4c4cc(Br)ccc43)C1=O)C2(C)C (stereo not shown) [CBK262449],99.9913
24,COc1ccccc1-n1c(C)c(C(C)=O)c2cc(O)ccc21 [CBK115320],88.5244
25,O=C(NC[C@H]1CC[C@H](C(=O)O)CC1)c1cc2ccccc2[nH]1 [CBK287069],99.3201
26,CNC(=O)C1(Cc2ccccc2-c2cccs2)CCN(C(=O)COc2ccccc2)CC1 [CBK285684],123.778
27,O=S(=O)(Nc1nnn[nH]1)c1ccccc1Br [CBK062386],97.0182

row,SMILES,% of control remaining
1,O=C(c1ccccc1F)[C@H]1CCCN(C(=O)c2cc(C3CC3)n[nH]2)C1 [CBK284330],72.2694
2,Cc1ccc(OCC(=O)N2CCN(S(=O)(=O)c3ccc4ccccc4c3)CC2)cc1 [CBK264200],101.957
3,c1ccc(CCN2CCN(Cc3ncc[nH]3)CC2)cc1 [CBK138328],80.7793
4,CCCc1ccc(S(=O)(=O)Nc2ccc(C(=O)O)cc2)cc1 [CBK034044],78.4561
5,O=C(CCC(=O)c1ccc2c(c1)OCCO2)OCC(=O)c1ccc(F)cc1 [CBK264679],105.427
6,O=C(Nc1ncn(CC(=O)N2CCCCCC2)n1)c1ccsc1 [CBK304974],134.041
7,CN(C)C(=O)[C@H]1CC[C@]2(CC1)CNC(=O)c1ccccc1O2 [CBK284894],125.954
8,CC1CN(Cc2nc3c(c(=O)n(C)c(=O)n3C)n2CCCO)CC(C)O1 (stereo not shown) [CBK269298],101.529
9,c1csc(-c2nccnc2OC2CCCCC2)c1 [CBK107060],101.567
10,CCOc1ccc(-c2n[nH]c(C)c2-c2ccc(OC)c(OC)c2)c(O)c1 [CBK288106],37.8264
11,COc1cc(C)c(Nc2cc(-c3ccc(CC(C)C)cc3)ncn2)cc1OC [CBK090785],127.032
12,CCC(CN1CCOCC1)NC(=O)Cc1coc2c(C)c(C)ccc12 (stereo not shown) [CBK282813],87.2665
13,CCOC(=O)C1(C2CCCCC2)CCN(C(=O)Cc2ccc(Cl)c(Cl)c2)CC1 [CBK136922],98.4748
14,N#Cc1cc(Nc2ccc(Cc3ccncc3)cc2)c([N+](=O)[O-])cc1C#N [CBK264090],115.125
15,CCCc1nnc(NC(=O)CN2CCc3c(c(CO)nn3C)C2)s1 [CBK307172],46.8358
16,Cc1cc(OCCCNCCO)ccc1Cl [CBK262230],135.848
17,CCn1cc(-c2cncn2CCOc2ccc(Cl)cc2)cn1 [CBK281776],108.566
18,CC(=O)Nc1ccc(OCC(O)Cn2cnc3cc(C)c(C)cc32)cc1 (stereo not shown) [CBK304545],68.4949
19,COc1ccc(C(NC(=O)c2ccc(Cn3nc(C)cc3C)o2)c2ccccc2)cc1 (stereo not shown) [CBK285578],95.6369
20,CN(Cc1nc(-c2ccncc2)no1)S(=O)(=O)c1ccc(Br)cc1 [CBK268598],82.3135
21,COc1ccc(CNc2cncc(-c3cncc(OC)c3)n2)cc1 [CBK065388],123.839
22,Cc1nn(C)c(C)c1CN(C)C(=O)CCC(C)N1CCCC1 (stereo not shown) [CBK282001],88.2603
23,CC(=O)NC(CC(=O)N1CCc2sccc2C1c1ccccc1)c1ccc(F)cc1 (stereo not shown) [CBK285548],93.2008
24,Cc1c(-c2ccc(N(C)C)nc2)c(C(F)(F)F)nn1C [CBK307320],100.109
25,Cc1[nH]c2ccccc2c1C(=O)CSc1nc2ccccc2o1 [CBK266339],96.9719
26,Cc1n[nH]c(=O)c2nc(-c3ccc(=O)[nH]n3)[nH]c12 [CBK008745],65.7773
27,CN(C)c1ccc(-c2nc(C(F)(F)F)nn2C)cn1 [CBK307202],84.4999

row,SMILES,% of control remaining
1,CCNC(=O)N1CC2(CCN(Cc3nc4ccccc4[nH]3)CC2)c2ccccc21 [CBK126693],42.1307
2,Cn1ccnc1C1(O)CCN(C(=O)c2ccccc2F)CC1 [CBK283536],49.8758
3,C[C@H](Nc1cncc(-c2cccc3ccccc23)n1)c1ccccc1 [CBK065654],119.15
4,Cc1ccc(-n2ncc3c(Nc4c(C)n(C)n(-c5ccccc5)c4=O)ncnc32)c(C)c1 [CBK294449],96.4818
5,COc1ccc(OCC(=O)Nc2ccc(CN3CCOCC3)cc2)cc1 [CBK269686],81.608
6,Cc1nc(CN2CCN(c3cccc(C(F)(F)F)n3)CC2)cs1 [CBK304709],114.121
7,C/C(=N/NC(N)=S)c1ccccc1OCC(=O)O [CBK007123],64.2678
8,Cc1ccc(CNC(=O)CCC(=O)O)cc1 [CBK058951],140.197
9,CC1=C[C@@H](CO)[C@H](C(C)C)C[C@H]1Cc1nnc(-c2ccncc2)o1 [CBK289222],97.4394
10,COC(=O)c1cc(S(=O)(=O)N2c3ccccc3CC2C)cn1C (stereo not shown) [CBK304384],47.042
11,CC(C)C[C@H](NC(=O)COc1ccc2nc3n(c(=O)c2c1)CCCCC3)C(=O)O [CBK286656],49.0208
12,Nc1nc(CSc2nnc(Cc3ccc([N+](=O)[O-])cc3)n2-c2ccccc2)cs1 [CBK267408],114.177
13,Cc1cc2oc(C(=O)Nc3sc4c(c3C(=O)NC3CCS(=O)(=O)C3)CCC(C)C4)c(C)c2cc1C (stereo not shown) [CBK266351],120.511
14,COc1ccc(-c2cc(C(=O)Nc3ccc(OC(F)(F)F)cc3)cnc2-c2ccccc2)cn1 [CBK036621],57.365
15,Cc1nn2c(C)c(C(=O)Nc3ccccc3)nnc2c1-c1ccccc1 [CBK270198],100.101
16,Cc1cc2c(s1)c1cnn(Cc3ccccn3)c(=O)c1n2C [CBK284227],109.167
17,Cc1nn(C)cc1C(=O)N1CCCC1c1nc2ccccc2[nH]1 (stereo not shown) [CBK282371],101.47
18,O=C(Nc1nc2ccccc2[nH]1)c1cccc(N2CCCS2(=O)=O)c1 [CBK304584],28.7374
19,O=c1[nH]c2ncc(-c3ccsc3)nc2n1CCCO [CBK065044],72.9749
20,Cc1cc(C(=O)N2CCC(C(=O)NC(c3ccccc3)c3ccc4ccccc4n3)CC2)no1 (stereo not shown) [CBK059641],95.9721
21,COc1ccc(S(=O)(=O)N2Cc3ccccc3CC2C(=O)Nc2ccc(O)cc2)cc1OC (stereo not shown) [CBK293967],99.0415
22,Cc1ccc(S(=O)(=O)NCC(=O)Nc2ccc(Cl)cn2)cc1 [CBK091357],74.2948
23,NNC(=O)CN(CCc1ccccc1)S(=O)(=O)c1ccc(Cl)cc1 [CBK263754],104.507
24,COc1cccc(CN2C(=O)CC3(C2=O)C(=O)N(Cc2ccc4ccccc4n2)c2ccccc23)c1 (stereo not shown) [CBK076016],89.9685
25,O=C(O)c1nccnc1C(=O)N1CCN(c2ccc(Cl)cc2)CC1 [CBK286826],82.229
